Measurements published in PubChem BioAssay AID504332 (National Center for Advancing Translational Sciences (NCATS), 2011).
Hit rate of the full screen: of about 350,000 compounds, about 31,000 (8.9%) were called active. This list was built around the results that the source calls inconclusive (neither active nor inactive); the mix of calls is not that of the screen. The call rests on the fitted dose curve; in most records, active means well fitted inhibition curve with a large enough effect; inconclusive means small, poorly fitted or top-dose-only effect; inactive means no such curve, though single readings can be large or run the other way. Where the call is inconclusive, the potency comes from a doubtful curve fit.

target: Histone-lysine N-methyltransferase EHMT2 (Homo sapiens) (UniProt Q96KQ7); experiment: qHTS Assay for Inhibitors of Histone Lysine Methyltransferase G9a; settings: G9a H3K9 monomethylation, AlphaScreen, 2 h; activity, negative = inhibition: at 59 µM (top of the series) unless noted; further: nearly all actives have a fitted effect of over 75% in size
Procedure, shortened: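 Readings reflect AlphaScreen signal from monomethyl-H3K9 antibody detection. HMT at 20 nM; substrate b-H3K9 500 nM; cofactor SAM 20 uM; 2 h RT reaction; compounds tested as titrations in qHTS with 15 min preincubation.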
On the % scale 0 is the no-effect control and ±100 the full control effect; potency means the concentration at half of the fitted maximal effect; tags describe the fitted curve by direction and shape.

Sequence of UniProt Q96KQ7 (Q96KQ7 whole entry, looked up): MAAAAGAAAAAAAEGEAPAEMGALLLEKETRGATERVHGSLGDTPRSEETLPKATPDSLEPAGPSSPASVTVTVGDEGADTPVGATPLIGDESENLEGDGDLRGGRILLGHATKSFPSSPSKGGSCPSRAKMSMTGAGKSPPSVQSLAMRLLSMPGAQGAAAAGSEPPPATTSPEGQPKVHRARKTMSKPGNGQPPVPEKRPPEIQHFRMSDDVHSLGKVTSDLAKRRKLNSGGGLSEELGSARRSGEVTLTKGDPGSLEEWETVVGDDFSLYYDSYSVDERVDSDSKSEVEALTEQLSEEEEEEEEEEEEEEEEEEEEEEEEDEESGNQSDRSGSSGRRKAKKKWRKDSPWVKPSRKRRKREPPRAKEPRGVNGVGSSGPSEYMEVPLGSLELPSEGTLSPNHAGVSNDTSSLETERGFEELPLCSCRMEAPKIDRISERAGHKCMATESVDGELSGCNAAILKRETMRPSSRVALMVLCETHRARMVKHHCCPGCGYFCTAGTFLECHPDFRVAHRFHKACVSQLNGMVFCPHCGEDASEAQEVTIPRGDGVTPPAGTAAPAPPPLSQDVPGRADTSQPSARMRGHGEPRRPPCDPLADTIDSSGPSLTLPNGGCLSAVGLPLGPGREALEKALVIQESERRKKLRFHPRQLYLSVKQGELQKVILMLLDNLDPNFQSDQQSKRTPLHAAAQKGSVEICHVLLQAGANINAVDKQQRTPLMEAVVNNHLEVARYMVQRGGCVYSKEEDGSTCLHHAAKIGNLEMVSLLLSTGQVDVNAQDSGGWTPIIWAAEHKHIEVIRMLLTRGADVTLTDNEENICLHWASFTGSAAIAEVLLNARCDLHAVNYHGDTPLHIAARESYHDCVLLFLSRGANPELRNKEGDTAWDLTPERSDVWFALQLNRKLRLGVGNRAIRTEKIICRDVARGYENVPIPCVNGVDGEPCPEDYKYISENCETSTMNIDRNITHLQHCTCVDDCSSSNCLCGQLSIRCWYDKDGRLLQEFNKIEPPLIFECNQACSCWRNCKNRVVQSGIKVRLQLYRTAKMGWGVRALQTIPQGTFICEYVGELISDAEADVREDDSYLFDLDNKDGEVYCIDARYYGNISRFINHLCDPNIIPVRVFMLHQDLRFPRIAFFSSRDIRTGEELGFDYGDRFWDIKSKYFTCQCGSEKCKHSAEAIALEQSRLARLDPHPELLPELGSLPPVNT

| SMILES | Potency | activity, negative = inhibition |
| --- | --- | --- |
| Cc1ccc(-n2nc(C(=O)N(C)c3ccccc3Cl)c3c4ccccc4n(C)c3c2=O)cc1 | inactive |  |
| O=C(CSc1ncc(-c2ccccc2)[nH]1)Nc1cccc(O)c1 | inconclusive: 89.1 µM [inhibitor, single point] |  |
| Cc1nc(N2CCN(Cc3nc4ccccc4[nH]3)CC2)c2oc3ccccc3c2n1 | inconclusive: 50.1 µM [inhibitor, partial curve, poor fit] |  |
| Cc1nnc(NC(=O)C(C)Sc2nncn2C)s1 (stereo not drawn) | inconclusive: 79.4 µM [inhibitor, single point] |  |
| COc1ccc(C)cc1NC(=O)CNC(C)C(=O)Nc1ccc(C(C)=O)cc1 (stereo not drawn) |  | inactive: -36.4% [at 2.33 µM] |
| CCc1ccccc1NC(=O)Cn1nc(C)c2nn(-c3ccc(Cl)cc3)c(C)c2c1=O | inactive |  |
| CC(C)Cc1nc(S(=O)(=O)c2ccc(Cl)cc2)c(N2CCOCC2)o1 | inconclusive: 6.31 µM [inhibitor, single point] |  |
| CC(Sc1nnc(Cc2cccs2)n1C1CC1)C(=O)NC1CCS(=O)(=O)C1 (stereo not drawn) | inactive |  |
| CCCN1CCN(S(=O)(=O)c2c(C)[nH]c(C)c2C(=O)N2CCCCC2)CC1 | inactive |  |
| CCC1(c2ccc(F)cc2)NC(=O)N(CC(=O)Nc2cccc(S(=O)(=O)N3CCCCC3)c2)C1=O (stereo not drawn) |  | inactive: 3.72% [at 0.501 µM] |
| COc1ccc(N(CC(=O)Nc2cc(Cl)ccc2OC)S(=O)(=O)c2c(C)noc2C)cc1 | inconclusive: 89.1 µM [inhibitor, single point] |  |
| CN(C)S(=O)(=O)N(CC(=O)Nc1ccc2ccccc2c1)c1ccccc1 | inconclusive: 39.8 µM [inhibitor, single point] |  |
| CN1CCC/C1=C/C=C1\SC(=S)NC1=O | active: 10 µM |  |
| O=c1[nH]c2cc([N+](=O)[O-])c(NCCO)c([N+](=O)[O-])c2[nH]1 | inconclusive: 44.7 µM [inhibitor, partial curve] |  |
| CC(C)C(c1nnnn1Cc1ccc(F)cc1)N1CCN(c2ccc(O)cc2)CC1 (stereo not drawn) | active: 12.6 µM |  |
| Cc1cccc(NC(=O)CNC(=O)CSc2nc(N)cc(N)n2)c1C | inactive |  |
| Cc1nn(C)cc1CNC(=O)c1ccccc1Br | inconclusive: 35.5 µM [inhibitor, partial curve, poor fit] |  |
| COc1ccc2[nH]c(=O)cc(C(=O)O)c2c1 | active: 35.5 µM |  |
| COc1ccc(CCNC(=O)c2cc3c(cc2Cl)N2CCCCCC2=NS3(=O)=O)cc1 | inconclusive: 25.1 µM [inhibitor, partial curve] |  |
| COC(=O)c1cnc(NNS(=O)(=O)c2ccc(C(F)(F)F)cc2)nc1C(F)(F)F | inconclusive: 31.6 µM [inhibitor, single point] |  |
| CSc1ccc(CCNC(=O)C2CCCN(S(=O)(=O)N(C)c3ccc(F)cc3)C2)cc1 (stereo not drawn) | inactive |  |
| Cc1sc(/N=C/c2c(O)ccc3ccccc23)c(C#N)c1C | active: 10 µM |  |
| CCOc1cccc(NC(=O)CSc2sc3c(O)cc(=O)[nH]c3c2C#N)c1 | inconclusive: 89.1 µM [inhibitor, single point] |  |

| SMILES | Potency | activity, negative = inhibition |
| --- | --- | --- |
| CC1=C(OC(=O)c2ccccc2)C(C)(C)C(c2ccccc2)OC1=O (stereo not drawn) | inconclusive: 39.8 µM [inhibitor, single point] |  |
| CCOC(=O)c1c(NC(=O)CSc2nnc(-c3ccco3)o2)sc(C)c1C | inactive |  |
| CCOC(=O)CN1C(=O)SC(Nc2ccc(C)cc2)C1=O (stereo not drawn) | inconclusive: 79.4 µM [inhibitor, partial curve, poor fit] |  |
| C[C@H](NC(=O)OC(C)(C)C)c1nnc(SCc2ccc(Cl)cc2Cl)o1 | inactive |  |
| COC(=O)c1sccc1N/C=C(\C#N)S(=O)(=O)C(C)(C)C | inactive |  |
| CCCn1c(=O)[nH]c(=O)c2c1nc(-c1ccc(OC(F)F)cc1)n2CCN1CCOCC1 | inconclusive: 0.501 µM [inhibitor, full curve] |  |
| Cc1ccc(NC(=O)CN(c2ccc(Cl)cc2)S(=O)(=O)c2cc([N+](=O)[O-])ccc2Cl)c(C)c1 |  | inconclusive: -72.6% [inhibitor] |
| Cc1ccc(-n2c(=O)c3c4c(sc3n3c(=S)[nH]nc23)CCC4)cc1 | active: 2.82 µM |  |
| COc1ccc(C(C)C)cc1S(=O)(=O)NCCc1c(C)[nH]c2c(Cl)cccc12 | inconclusive: 31.6 µM [inhibitor, partial curve, poor fit] |  |
| CN(C)CCC=C1c2ccccc2C(C)(C)c2ccccc21 | inconclusive: 1.41 µM [inhibitor, partial curve, poor fit] |  |
| COc1ccccc1C(=O)NNC(=O)C(=O)NC(C)C | inconclusive: 3.55 µM [inhibitor, full curve, poor fit] |  |
| CCn1c(SCc2ccccc2)nnc1-c1cccs1 | inconclusive: 39.8 µM [inhibitor, single point] |  |
| COc1cc(C2CC(=O)N3CN(c4ccccc4C)CSC3=C2C#N)cc(OC)c1OC (stereo not drawn) | active: 1.41 µM |  |
| COc1ccccc1/C=N/Nc1nncc2ccccc12 | inconclusive: 44.7 µM [inhibitor, partial curve, poor fit] |  |
| COc1ccccc1C(=O)CSc1ccccn1 | inconclusive: 39.8 µM [inhibitor, partial curve] |  |
| CCOC(=O)C1=C(C)NC(SCC(=O)OC)=C(C#N)C1c1ccc(C(=O)OC)cc1 (stereo not drawn) | inconclusive: 15.8 µM [inhibitor, partial curve] |  |
| Cc1ccc(OCC(=O)Nc2ccccc2Sc2ccc(Cl)cc2)c([N+](=O)[O-])n1 | inconclusive: 44.7 µM [inhibitor, partial curve, poor fit] |  |
| CCN(CC)c1ccc2nc3c(=O)n(C)c(=O)n(C)c3nc2c1 | inactive |  |
| Cc1oc2c(cc(NS(=O)(=O)c3cccs3)c3ccccc32)c1C(=O)OC(C)C | inconclusive: 25.1 µM [inhibitor, single point] |  |
| CCOC(=O)C1CCN(CC(=O)c2c(C)n(C)c3ccc(OC)cc23)CC1 | inconclusive: 79.4 µM [inhibitor, single point] |  |
| CCOc1ccc(N(CC(=O)N/N=C/c2ccccn2)S(=O)(=O)c2ccc(Cl)cc2)cc1 | inactive |  |
| CCOCc1nnc(NC(=O)CCS(=O)(=O)Cc2ccccc2)s1 | active: 79.4 µM |  |
| CCC(C)N(C(=O)CSc1nnc(-c2cccs2)n1C1CC1)C1CCS(=O)(=O)C1 (stereo not drawn) | inconclusive: 44.7 µM [inhibitor, partial curve] |  |

| SMILES | Potency | activity, negative = inhibition |
| --- | --- | --- |
| Cc1c(Cc2ccccc2)c(=O)oc2c(O)c(O)ccc12 | active: 3.98 µM |  |
| CC(C)(C)OC(=O)N/N=C\c1ccc([N+](=O)[O-])s1 | inconclusive: 50.1 µM [inhibitor, partial curve] |  |
| O=[N+]([O-])c1cc(C(F)(F)F)cc([N+](=O)[O-])c1N1CCCNCC1 | inconclusive: 50.1 µM [inhibitor, single point] |  |
| CCOC(=O)c1sc(NC(=O)/C=C/c2cnn(CC)c2C)c(C(=O)OCC)c1C | inconclusive: 22.4 µM [inhibitor, single point] |  |
| CC(=O)c1cccc(S(=O)(=O)N(Cc2cc3cc4c(cc3[nH]c2=O)OCCO4)CC2CCCO2)c1 (stereo not drawn) | inconclusive: 1.78 µM [inhibitor, partial curve, poor fit] |  |
| CCC1CCCCN1S(=O)(=O)c1ccc(C(=O)Nc2nnc(-c3ccccc3Cl)o2)cc1 (stereo not drawn) | inactive |  |
| COc1ccc(CNC(=O)CCn2c(=O)c3cccn3c3ccc(F)cc32)cc1OC | inactive |  |
| Cc1ccc(/C=C2/SC(=S)N(C3CCCCC3)C2=O)o1 | active: 39.8 µM |  |
| O=C(O)Cc1c(C(=O)O)nnn1-c1cccc(C(F)(F)F)c1 | inconclusive: 79.4 µM [inhibitor, single point] |  |
| O=C(CSc1oc(-c2ccc(F)cc2)nc1S(=O)(=O)c1ccccc1)c1ccc(Cl)cc1 | inactive |  |
| CC(C)c1nn2c(=O)cc(COC(=O)c3cccc(NC(=O)CCc4ccccc4)c3)nc2s1 |  | inactive: 3.4% [at 12.7 µM] |
| O=C(C(c1ccccc1)c1ccccc1)N1CCN(c2ccccn2)CC1 | inconclusive: 44.7 µM [inhibitor, partial curve, poor fit] |  |
| Cc1cccc(C)c1-n1c(C)cc(/C=N\Nc2ccc([N+](=O)[O-])cn2)c1C | inconclusive: 1.41 µM [inhibitor, full curve, poor fit] |  |
| O=C(c1ccc(N2CCCCC2)c([N+](=O)[O-])c1)N1CCN(c2ccccn2)CC1 | inconclusive: 39.8 µM [inhibitor, single point] |  |
| CCCCn1c(N)c(N(CCC(C)C)C(=O)c2cc(-c3ccco3)nc3ccccc23)c(=O)[nH]c1=O | inconclusive: 89.1 µM [inhibitor, single point] |  |
| Cc1ccc(-c2nnn(CC(=O)N(CCCO)C(C(=O)NC3CCCC3)c3ccc(F)cc3)n2)o1 (stereo not drawn) | inactive |  |
| CC1CCC2(CC1)NC(=O)N(NC(=O)CCc1c[nH]c3ccccc13)C2=O (stereo not drawn) | inconclusive: 44.7 µM [inhibitor, partial curve] |  |
| COc1ccccc1OCc1ccc(C(=O)NCc2ccco2)o1 | inconclusive: 22.4 µM [inhibitor, single point] |  |
| NS(=O)(=O)c1ccc(CNc2nc(-c3cccnc3)nc3ccccc23)cc1 | inactive |  |
| O=C(CN1CCc2ccccc21)NCc1ccccc1Cl | active: 70.8 µM |  |
| Cn1c(=O)c2c(-c3ccccc3)n(-c3cccc(C#N)c3)cc2n(C)c1=O | inconclusive: 8.91 µM [inhibitor, partial curve, poor fit] |  |
| O=C(O)c1ccc(Nc2ncnc3scc(-c4ccccc4)c23)cc1 | inconclusive: 39.8 µM [inhibitor, single point] |  |
